Test results: paper PMC4336329 (PLoS ONE, 2015)
Hit rate of the full screen: of about 310,000 compounds, about 2,200 (0.71%) showed an effect of 50% or more. Effects have a minus sign here. This is one part of the list.

molecular target: human ether-à-go-go-related gene (hERG) potassium channel (human, UniProt Q12809); experiment: primary screen, population patch clamp on CHO cells stably expressing hERG
Sequence (Q12809 whole entry, looked up): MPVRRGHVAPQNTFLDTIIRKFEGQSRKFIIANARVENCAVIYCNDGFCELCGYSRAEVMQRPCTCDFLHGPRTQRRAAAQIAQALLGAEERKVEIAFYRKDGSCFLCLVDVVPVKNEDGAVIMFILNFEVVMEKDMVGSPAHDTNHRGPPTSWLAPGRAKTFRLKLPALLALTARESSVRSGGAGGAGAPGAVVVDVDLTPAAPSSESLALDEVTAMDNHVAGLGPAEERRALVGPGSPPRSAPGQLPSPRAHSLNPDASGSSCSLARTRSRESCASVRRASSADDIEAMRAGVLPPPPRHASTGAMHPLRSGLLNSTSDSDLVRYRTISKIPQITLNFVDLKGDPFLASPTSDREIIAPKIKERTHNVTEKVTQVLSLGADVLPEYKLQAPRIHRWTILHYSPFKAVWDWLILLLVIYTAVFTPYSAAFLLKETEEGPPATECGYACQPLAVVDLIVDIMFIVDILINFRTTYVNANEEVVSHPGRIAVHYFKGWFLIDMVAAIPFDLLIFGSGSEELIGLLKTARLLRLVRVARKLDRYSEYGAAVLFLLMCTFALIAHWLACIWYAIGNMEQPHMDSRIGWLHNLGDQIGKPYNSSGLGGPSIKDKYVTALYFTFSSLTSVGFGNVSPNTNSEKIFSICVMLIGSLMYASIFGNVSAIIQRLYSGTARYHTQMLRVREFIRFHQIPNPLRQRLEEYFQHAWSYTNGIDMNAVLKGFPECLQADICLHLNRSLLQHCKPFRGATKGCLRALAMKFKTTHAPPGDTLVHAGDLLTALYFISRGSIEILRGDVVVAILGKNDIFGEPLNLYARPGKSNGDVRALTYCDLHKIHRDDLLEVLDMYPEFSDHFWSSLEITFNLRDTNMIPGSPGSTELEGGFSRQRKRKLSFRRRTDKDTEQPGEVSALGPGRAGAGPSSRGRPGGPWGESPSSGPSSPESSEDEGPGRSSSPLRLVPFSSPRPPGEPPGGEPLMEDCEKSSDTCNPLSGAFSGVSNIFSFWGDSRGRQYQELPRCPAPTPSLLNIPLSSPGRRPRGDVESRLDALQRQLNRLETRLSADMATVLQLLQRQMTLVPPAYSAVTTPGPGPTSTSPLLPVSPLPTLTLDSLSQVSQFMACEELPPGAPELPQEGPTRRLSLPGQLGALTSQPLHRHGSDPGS

SMILES | hERG current change (%, negative = inhibition) at 1uM
O=C(Nc1ccc(C(=O)O)cc1)/C(=C\c1ccccc1)NC(=O)c1ccco1 | 12.1%
Cc1nn(-c2ccccn2)c(C)c1Oc1ccccc1O | 14.4%
N#Cc1cccc(S(=O)(=O)NCc2nnc3ccccn23)c1 | 21%
CCN(Cc1ccc2c(c1)OCCO2)C(=O)CN1C(=O)NC2(CCCCC2)C1=O | 6.09%
Cc1cc(C(=O)COC(=O)c2cc(Cl)c(O)c(Cl)c2)c(C)n1C | 6.18%
Cc1ccc(-c2cc(C(=O)N3CCc4ccccc4C3)no2)cc1 | 8.01%
OCC1(CCCc2ccccc2)CCN(C2CCSCC2)CC1 | -65.4%
CCc1ccc2c(CN(C)Cc3ccccc3OC)cc(=O)oc2c1.O=C(O)C(=O)O | 13.1%
O=S1(=O)N=C(N2CCCC2)c2ccccc21 | 13%
Oc1ccccc1-c1nc(NCc2ccco2)c2ccccc2n1 | 6.2%
COc1cc(C(CC(=O)Nc2ncccc2C)N2Cc3ccccc3C2=O)cc(OC)c1OC (stereo not shown) | 13.2%
COC(=O)CSc1nc(-c2ccccc2)cc(-c2ccco2)c1C#N | 7.6%
CC(=O)Nc1ccc(NC(=O)c2ccccc2C)cc1 | 18.3%
Cc1ccc(-c2csc(NC(=S)NC(=O)/C=C/c3ccco3)n2)cc1 | 23.2%
Cc1ccc(NC(=S)N2CCC(O)CC2)c(C)c1 | 14.5%
CCOC(=O)C1CN(S(=O)(=O)c2cccs2)c2ccc(CC(=O)OC)cc2O1 (stereo not shown) | -1.9%
C=CCc1ccc(OCCOCCNCCCC)c(OC)c1 | -7.78%
COc1ccc(CCNC(=O)C/C(C)=N/NC(=O)C2CCCCC2)cc1OC | 9.86%
COc1ccccc1-n1nnnc1SCC(=O)Nc1cc(C)on1 | 6.37%
COc1ccc(S(=O)(=O)N2CCCOC2CNC(=O)C(=O)NCCc2ccco2)cc1 (stereo not shown) | 13.5%
Cc1ccc(-c2cc(Cc3ccccn3)c(=O)[nH]n2)cc1 | 7.24%
COc1ccc(N2CSC3=C(C#N)C(c4cccs4)CC(=O)N3C2)cc1 (stereo not shown) | 6.08%
CCN(CC)c1ccc(NC(=O)C2CCCC2)cc1 | 13.2%
Cn1c(N)c(C(=O)CSc2nnc(-c3ccccc3F)n2N)c(=O)n(C)c1=O | 13.3%
O=C1CN(C(=O)c2ccccc2Br)C(c2ccc(F)cc2)c2cc(F)ccc2N1 (stereo not shown) | 11.7%
